Read counts are not given, so values of variants with three or more changes are uncertain.
B1: LINE1-mini (parent)
chain: GGCAGAGCUCAACACAGCGUGGCAAAGUGGCUGUGGCUAGACUGCC

Variants of: B1
Assay: self-cleavage, relative activity (ratio to wild type); higher = more cleavage; in vitro, sequencing; the parent is a self-cleaving ribozyme

Row | Variant | self-cleavage
1 | CACAGAGCUCAACACAGCGUGGCAAACUGGCUGUGGCUCGACUGCC | 0.04
2 | UGCAGAGAUCCACACAGCGUGGCAAAGUGGCUGUGGCUAGACUGCC | 0.01
3 | GGCAGAGCUGAACACAGCGUGGCAAUGUGGCAGUGGCUAGAGUGCC | 0.03
4 | GGCAGAGCUCAACACAGCGAGGCAAAGUGGCUGUGGCUAAACUGCA | 0.01
5 | GGCACAGCUCAACAGAGCAUGGCAAAUUGGCUUUGGAUAGACUGCC | 0.01
6 | GGCAGAGCUCAACACACAGUGGCAAAUUGGCCGUGGUUAGACUGCC | 0.01
7 | CGCAGGGCUCAACACAGCGUGGCAAAGUGGCUGUGGGUAGACUGCC | 0.01
8 | GGCAGAGCUCAAAACAGCGUUGCAAACUGGCUUUGGCUAGACUGCC | 0.03
9 | GGCAGAGCUCAACUCAGCGUGUCAAAGUGGCUGUGGCUAGACUGCA | 0.32
10 | GGCAGAGCUCAAAAGAGCGUGGCAAAGUGGCUGUGGCUAUACUGCC | 0.1
11 | GGCAGAGCUCAACACAGCUCAGCAAAGUGGCUGUGGCUUGACUGCC | 0.69
12 | GGCAGAGCUCACCACAGCGUGGCAAAGUGACUGUGGCUAGACUGCU | 0.01
13 | GGCAGAGCUCAACCCACCGUGGCAAAGUGGUUGUGGCUACACUGCC | 0.01
14 | AGCAGGGCUCUACACAGCGUGGCAAAGAAGCUAUGGCUAGACUGCC | 0.02
15 | GGUAGAGCUCAGGAUAGCGUGGCAAAGUGGCUGAGGCUAGAAUGAC | 0.01
16 | GGAAGAGCUCAACAUAGCGUGGCAAACUGGCUGUGGCUAGACUGCC | 0.2
17 | GGCAGAGCUAAACACAGGGUGGCAAAGUGUCUGUGGCUAGACCGCC | 0.01
18 | UGCAGAGCCCAACACAGCGUGGCAAAGUUGCUGUGGCUAUACUGCC | 0.01
19 | GGCAGAGCUCCACACAGUGUGGCAGAGUAGCUGUGGCUAGACUGGC | 0

Row | Variant | self-cleavage
20 | UGCAGAACUCAACACAACGUGGCAAAGUGGCUGUGGCUAGACUGCC | 0.12
21 | GGCAGAGCUCACCACCGCGUGGCGAAGUGGCUGUGGCUAGACUUCC | 0
22 | GGCAGACCUAAUCACAGCAUGGCAAAGUGGCUGUGGCUAGACUGCC | 0.01
23 | GGCAGAGCUCAACACAGUGUGGCAAAGUCGUUGUGGCUAGACUGCC | 0.12
24 | GGCAGAGCUCAACACGGCGUGGCAAGGUGGCUGUGGCCAGACUGCC | 0.11
25 | GGAAGAGCUCAACACAGCGUGGCAGAGUGGCCGUGGCUAGACUGCC | 0.1
26 | GGCAGAGCUCCGCACAGCGUGGCAAAGUGCCUGUGGCUAGACUGCC | 0.03
27 | GGCAGAGCUCAACAUAGCGUGGCAAAGUGGCUAUGGCUAGACUGAC | 0.31
28 | GGCAGAGCUCAACACUGCGUGACAAAGUGGCUGUGGCUAGACGGCC | 0
29 | GGCAGAGCUCAACACAGCGUGGAAAAGGUGCUGUGGCUAGACUGCC | 0.64
30 | GGCAGAGCCCAACACAGCGUGUCAAAGUGGCUGUGGCUAGACUUCC | 0.02
31 | GGCAGAGCUCAACACAACGUGGCAAAGUUGCUGGGGCUAGACUGCC | 0.03
32 | GGCAGAGUUCAACACAGCGAGGCAAAGUGGCUGUAGCUAGAUUGCC | 0.1
33 | GGCAGACCUCUACACAGCGCGGCAACGUGGCUGUGGCUAGACUGCC | 0.01
34 | GGCUGAGCUCAGCACAACGUGGCAAAGUGGCUGCGGCUAGACUGCC | 0.09
35 | GGCAGAACUCAACACAGCGUGGCAAAGUGGCUGCGGCUACACUGCC | 0.07
36 | GGCAGAGCUCAACAUAGUGUGGCAAAGUGGCUGUAGCUAGACUGCC | 0.06
37 | GGCAAAGCUCAACACAGCGUGGCAAAGUGGCUAUGGCUAGACCGCC | 0.09
38 | GGCAGAGCUCAACACAGCGUGGCAAAGUGGCUCUUGCAAGACUGCC | 0.04

Row | Variant | self-cleavage
39 | GGCAGAGCUCCACUCAGCGUAGCAAAGUGGCUGUGGCUAGACUGCC | 0.03
40 | GGCAUAGUUCAACACAGGGUGGCAAAGUAGAUGUGGCUAGACUGCA | 0.11
41 | GUCAGAGCUCAACACUGCGUGGCAAUGUGGCUGUUGCUAGACUGCC | 0
42 | GGCAGAGCUCAACAUAGCCUGGCCAAGUUGCUGUGACUAGACUGCC | 0.19
43 | GGCAUAGCUCAACACAACGUGGCAAAGUGGCUGUGUCUAGACUGGC | 0.02
44 | CGCAGGGCUCACCACAGCGUGGCGAAGUGGCUGUGGCUAGACUGUC | 0
45 | GGCAGAGCUCAAUAUAGCGUGACAAAGUGGCUGUGGCUAGACUGCC | 0.17
46 | GGCAGAGCUCAACACAGUGUGGCAAAGCGGCUGUGGGUAGACUGCC | 0.02
47 | GGCAGACCUCACCACAGCGUGGCAAAGUGGCUGUGGCUAUACUGCC | 0.06
48 | GGCAGAGCUCAACACAGCGAGGAACAGUGGCUGUGGCUAGACUGCC | 0.36
49 | GGCAGAGCUCAACACAACGUGGCAAAGUGGCUGUGGUUAGACUGCA | 0.12
50 | GGCAUAGCUCAAUAGAGCGUGGCAACGUGUCUGUGGCUAGACUGAG | 0.01
51 | GGCAGAGCUCAACACAUCGUUGCAAAGUGGCUGUGGCUAUACUGCC | 0.01
52 | GGCACAGCUCAACACUGGGUGGAAAUGUGGCUGUGGCUAGACUGCC | 0.02
53 | GGCGGAGCUCAACACAGCAUGGCAAAGUGCCUGUGGCAAGACUACC | 0.04
54 | GACAGAGCUCAACACAGCGUGGCAAAGUGGAGGUGGCUAGACUGAC | 0.22
55 | GGAAGAGCUCAACACCGCGUGAAAAAGUGGCUGUGGCUAAACCGCC | 0.04
56 | GGCAGAGCUCAACACAGAGUGGCAAAGUGGCUCUGGCUAGACUGCA | 0.02
